About 17,000 (4.4%) of roughly 390,000 compounds were called active. Inconclusive results, whose numbers are uncertain, are shown with a selection of clear calls. Calls follow the shape of the dose curve; as a rule, active = well fitted inhibition curve with a large enough effect; inconclusive = small, poorly fitted or top-dose-only effect; inactive = no such curve, though single readings can be large or run the other way. Where the call is inconclusive, the potency comes from a doubtful curve fit.
What follows are compounds tested against Lysine-specific demethylase 4A (Homo sapiens) (UniProt O75164) (assay: qHTS Assay for Inhibitors of JMJD2A-Tudor Domain). Conditions: AlphaScreen JMJD2A-Tudor / H3K4me3 peptide binding; series mostly up to 114 µM.
Also: nearly all actives have a fitted effect of over 50% in size.
Potency is read from the fitted curve at half-maximal effect; tags tell the direction and shape of the fitted curve.

Sequence of UniProt O75164 (O75164 whole entry, looked up, the tested form may be a part): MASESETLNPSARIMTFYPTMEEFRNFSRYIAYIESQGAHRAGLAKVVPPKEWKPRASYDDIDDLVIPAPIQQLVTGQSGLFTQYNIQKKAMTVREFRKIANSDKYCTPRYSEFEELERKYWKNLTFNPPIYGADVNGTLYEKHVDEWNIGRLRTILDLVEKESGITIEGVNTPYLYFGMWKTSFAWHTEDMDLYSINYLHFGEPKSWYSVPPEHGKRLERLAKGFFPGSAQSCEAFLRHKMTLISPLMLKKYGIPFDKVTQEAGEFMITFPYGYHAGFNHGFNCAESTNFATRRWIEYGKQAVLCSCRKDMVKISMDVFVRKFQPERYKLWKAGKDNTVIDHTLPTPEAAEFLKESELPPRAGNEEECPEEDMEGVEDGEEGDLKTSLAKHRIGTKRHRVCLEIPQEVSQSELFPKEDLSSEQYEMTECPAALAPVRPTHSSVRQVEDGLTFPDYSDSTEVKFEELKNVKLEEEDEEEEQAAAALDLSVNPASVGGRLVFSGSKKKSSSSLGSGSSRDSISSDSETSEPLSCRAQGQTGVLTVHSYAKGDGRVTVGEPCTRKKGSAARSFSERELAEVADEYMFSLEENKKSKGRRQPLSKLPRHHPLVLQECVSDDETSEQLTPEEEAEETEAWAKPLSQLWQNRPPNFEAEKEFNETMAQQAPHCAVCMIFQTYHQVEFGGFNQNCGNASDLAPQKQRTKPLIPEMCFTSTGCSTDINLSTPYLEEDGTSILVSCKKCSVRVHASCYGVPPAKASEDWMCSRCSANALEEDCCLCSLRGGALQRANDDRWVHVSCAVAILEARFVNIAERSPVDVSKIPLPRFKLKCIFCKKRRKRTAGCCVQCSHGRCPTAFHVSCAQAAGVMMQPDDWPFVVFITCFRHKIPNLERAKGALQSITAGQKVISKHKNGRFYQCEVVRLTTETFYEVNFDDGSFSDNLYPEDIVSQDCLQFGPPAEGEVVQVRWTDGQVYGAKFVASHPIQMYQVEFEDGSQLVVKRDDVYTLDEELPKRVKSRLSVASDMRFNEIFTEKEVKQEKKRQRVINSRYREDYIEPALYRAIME

| SMILES | Potency |
| --- | --- |
| CN1CCN(c2ccc(S(=O)(=O)N3CCCCC3)cc2NC(=O)COc2ccc(F)cc2)CC1 | inconclusive: 56.2 µM [inhibitor, partial curve] |
| CCc1cc2c3c(c1)C1(C(=O)N3C(C)(C)CC2C)C(C#N)=C(N)N2C(=C1C#N)Nc1ccccc12 (stereo not given) | inconclusive: 20 µM [inhibitor, full curve] |
| N#CCSc1n[nH]c2nc3c(c(=O)n12)C1(CCCCC1)Cc1ccccc1-3 | inactive |
| Fc1cc(F)c2nc(Nc3nc4cc5c(cc4s3)OCO5)sc2c1 | inconclusive: 56.2 µM [inhibitor, partial curve, poor fit] |
| O=C(C[n+]1ccc(CCSc2ccc(F)cc2)cc1)c1ccccc1 | inconclusive: 56.2 µM [inhibitor, partial curve] |
| O=C(N/N=C/c1cccc(OC(=O)c2ccc([N+](=O)[O-])cc2)c1)c1cccnc1 | inactive |
| CC(C)=CCC/C(C)=C/CNC(=O)C[C@H]1C[C@H](C(=O)N2CCCCC2)[C@@]2(CCc3ccccc3)c3[nH]c4cc(CCC(=O)N(C)C)ccc4c3CCN2C1=O | inactive |
| Cc1ccc(Nc2c(-c3ccc(N4CCOCC4)cc3)nc3c(C)cccn23)cc1 | inconclusive: 14.1 µM [inhibitor, full curve] |
| O=C(NC(=S)Nc1cccc(Cl)c1N1CCCCC1)c1ccc2c(c1)OCCO2 | inconclusive: 44.7 µM [inhibitor, partial curve] |
| CCOC(=O)C1CCCN(c2c(C(=O)c3ccc(C)cc3)cnc3ccc(OCC)cc23)C1 (stereo not given) | active: 35.5 µM |
| O=C1CCN(CCc2ccccc2)CCN1C(CSc1ccc(Br)cc1)c1ccccc1 (stereo not given) | inconclusive: 20 µM [inhibitor, full curve, poor fit] |
| COc1ccc(/C=C/C(=O)Nc2cc(C)on2)cc1 | inconclusive: 35.5 µM [inhibitor, single point] |
| COc1ccc(CN2CCN(c3ncccn3)CC2)c(OC)c1 | inconclusive: 1.12 µM [inhibitor, full curve, poor fit] |
| Nc1oc2ccccc2c1C(=O)Cc1ccccc1O[C@@H]1O[C@H](CO)[C@@H](O)[C@H](O)[C@H]1O | inactive |
| CC1CCc2sc(C(=O)N(C)CC(=O)Nc3ccc(N4CCOCC4)cc3)cc2C1 (stereo not given) | inconclusive: 56.2 µM [inhibitor, partial curve] |
| CC(C)CCNC(=O)C12CN(Cc3ccccc3)CC1C(c1cccc([N+](=O)[O-])c1)=NO2 (stereo not given) | inconclusive: 39.8 µM [inhibitor, partial curve] |
| O=C(CSc1nc2c([nH]c3ccccc32)c(=O)n1-c1ccccc1)c1ccc(Cl)cc1 | inactive |
| COc1cc(NS(=O)(=O)c2ccc3[nH]c4c(c3c2)CCCC4)cc(OC)c1OC | inconclusive: 14.1 µM [inhibitor, full curve, poor fit] |
| CC(=O)Oc1ccc2c(c1)OC(c1ccccc1)CC21CC(C)(C)NC(=S)N1 (stereo not given) | inconclusive: 79.4 µM [inhibitor, partial curve] |
| COc1cc(CN2CCc3ccccc3C2)cc([N+](=O)[O-])c1O | active: 22.4 µM |
| CCOC(=O)CC(NC(=O)c1cc2cccc(OC)c2oc1=O)c1cccc([N+](=O)[O-])c1 (stereo not given) | inconclusive: 70.8 µM [inhibitor, single point] |
| COc1ccccc1NC(=S)N(CCc1nc2cc(C)c(C)cc2[nH]1)Cc1cccnc1 | inconclusive: 44.7 µM [inhibitor, partial curve] |

| SMILES | Potency |
| --- | --- |
| CC(C)(C)OC(=O)N1CCC(NC(=O)c2nc[nH]c2C(=O)N2CCN(C(=O)OC(C)(C)C)CC2)CC1 | inactive |
| FC(F)(F)c1cccc(-c2ccn3ncnc3n2)c1 | inconclusive: 112 µM [inhibitor, partial curve, poor fit] |
| CC(C)N(Cc1cn[nH]c1-c1ccc(-c2ccccc2)cc1)Cc1nccn1C | active: 56.2 µM |
| CCNc1ccc(S(=O)(=O)N(C)C)cc1NCC(=O)Nc1ccc(F)c(Cl)c1 | inconclusive: 50.1 µM [inhibitor, partial curve] |
| CCOC(=O)N1CCN(C(=O)c2ccc3nc(-c4ccccc4)c(-c4ccccc4)nc3c2)CC1 | inconclusive: 56.2 µM [inhibitor, partial curve] |
| Cc1cccc(Nc2ccc([N+](=O)[O-])cc2C(=O)O)c1 | inconclusive: 56.2 µM [inhibitor, partial curve] |
| CC(C(=O)NC1C=CS(=O)(=O)C1)N1C(=O)/C(=C/c2ccc(Cl)cc2)SC1=S (stereo not given) | inconclusive: 50.1 µM [inhibitor, partial curve] |
| Cc1cccc(C(=O)Nc2ccc(C(=O)/C=C/c3ccncc3)cc2)c1 | inactive |
| CC(=O)Nc1ccc(-c2cc(-c3ccc(NC(C)=O)cc3)nc(-c3ccccc3)n2)cc1 | inconclusive: 100 µM [inhibitor, single point] |
| Cc1ccc(C(=O)NNC(=O)C2CCN(S(=O)(=O)c3ccc(C)cc3)CC2)cc1 | inconclusive: 11.2 µM [inhibitor, partial curve] |
| CCC(=O)OC1(C)C(=O)C=C2C=C(CCCC(=O)OC)OC=C2C1=O (stereo not given) | inconclusive: 70.8 µM [inhibitor, partial curve, poor fit] |
| O=C(C1CCCCC1)N(Cc1cccnc1)c1nc2c(F)cc(F)cc2s1 | inactive |
| CCN1CCOC(=O)C1CC(=O)Nc1ccc(C)c(Cl)c1 (stereo not given) | inactive |
| CN(C)C(=O)CCCCCCCCC(=O)N(C)C | inactive |
| CCn1cc(-c2n[nH]c(=S)n2-c2ccc(C)cc2Br)c(=O)c2ccc(C)nc21 | inconclusive: 39.8 µM [inhibitor, single point] |
| O=C(O)C1Sc2[nH]c(=O)sc2C2c3cc(Br)ccc3OC(=O)C12 (stereo not given) | inactive |
| CNc1cc2c(cc1S(=O)(=O)Nc1ccc(C)c(C)c1)CCC(=O)N2 | inactive |
| COCC(C)NCc1cccc(OC)c1OC (stereo not given) | active: 1.78 µM |
| COc1cc(NC(=O)C2=CC(c3ccc(C)cc3)=NS(=O)(=O)N2C)cc(OC)c1OC | inconclusive: 50.1 µM [inhibitor, partial curve] |
| COc1ccc(OC)c(-c2nn(-c3ccccc3)cc2C(=O)NCC(c2ccco2)N2CCCC2)c1 (stereo not given) | inconclusive: 35.5 µM [inhibitor, full curve, poor fit] |
| O=C(CCc1nnc(CCC2CCCCC2)o1)NCCn1cccn1 | inconclusive: 25.1 µM [inhibitor, partial curve] |
| Cc1ccc(-n2nnnc2SCn2nnc3ccccc3c2=O)c(C)c1 | inconclusive: 89.1 µM [inhibitor, partial curve] |

| SMILES | Potency |
| --- | --- |
| O=C(NC(=S)N1CCN(c2ccc(Cl)cc2[N+](=O)[O-])CC1)c1ccco1 | inconclusive: 50.1 µM [inhibitor, partial curve] |
| CN(CC(=O)Nc1ccc(Cl)c(C(F)(F)F)c1)C(=O)c1ccc(N2CCOCC2)c([N+](=O)[O-])c1 | inconclusive: 28.2 µM [inhibitor, partial curve] |
| COc1ccccc1NC(=O)CCc1nc2ccccc2s1 | active: 20 µM |
| CC(=O)Nc1cccc(NC(=O)C(F)(F)F)c1 | inactive |
| COc1cc(OC)c(OC)cc1CNC(=O)c1cccc(S(=O)(=O)N2CCc3ccccc3C2)c1 | inconclusive: 22.4 µM [inhibitor, full curve] |
| CN(C)CCCN(C(=O)c1ccc2ccccc2c1)c1nc2cc3c(cc2s1)OCO3 | inconclusive: 44.7 µM [inhibitor, partial curve] |
| O=C1CNc2ccc(C(=O)N3CCN(c4ccccn4)CC3)cc2N1 | inconclusive: 17.8 µM [inhibitor, partial curve, poor fit] |
| OCCCNc1nccc(-c2cc(Nc3cccc(Cl)c3)ncn2)n1 | inconclusive: 3.55 µM [inhibitor, full curve, poor fit] |
| O=C(O)c1nccnc1C(=O)N1CCN(c2ccccc2)CC1 | inconclusive: 70.8 µM [inhibitor, single point] |
| COc1ccccc1CNC(=O)[C@H](C)N1C(=O)N2CCc3c([nH]c4ccccc34)[C@@]2(C)C1=O | inconclusive: 79.4 µM [inhibitor, partial curve] |
| O=C(Nc1nnc(CCN2CCOCC2)s1)c1ccccc1 | inactive |
| Nc1ccccc1SCc1c(Cl)cccc1Cl | inactive |
| O=S(=O)(c1c(F)cccc1F)N1CCN(S(=O)(=O)c2c(F)cccc2F)CC1 | inconclusive: 35.5 µM [inhibitor, single point] |
| CC(C)CCNC(=O)CCCn1c(=O)c2cccn2c2ccccc21 | inconclusive: 44.7 µM [inhibitor, partial curve] |
| CCCCN1C(=N)N([C@@H](C)CN2CCC[C@H]2CN2C(N)=NC[C@H]2C(C)C)C[C@H]1[C@H](C)CC | inconclusive: 79.4 µM [inhibitor, single point] |
| O=C1Nc2ccccc2N=C(c2ccccc2)C1Br (stereo not given) | inconclusive: 56.2 µM [inhibitor, partial curve, poor fit] |
| COc1ccc(-c2cnc(SCC(=O)Nc3nc(C(C)(C)C)cs3)n2Cc2ccco2)cc1 | inconclusive: 31.6 µM [inhibitor, partial curve] |
| Oc1ccc2ccccc2c1CNc1cnc2ccccc2c1 | inconclusive: 79.4 µM [inhibitor, partial curve] |
| CC(=O)Nc1ccc(S(=O)(=O)NNC(=O)c2sc(=S)n(C)c2C)cc1 | active: 0.708 µM |
| Cc1ccnc(NC(c2cccc(O)c2)c2ccc3ccc(C)nc3c2O)c1 (stereo not given) | inconclusive: 10 µM [inhibitor, full curve] |
| Cc1cccnc1CN1CCN(Cc2nc(C(c3ccccc3)c3ccccc3)no2)CC1 | inconclusive: 50.1 µM [inhibitor, partial curve] |

Reference: PubChem BioAssay AID504339 (National Center for Advancing Translational Sciences (NCATS), 2011)
